Assay results taken from article PMC12820563.
This is one part of the list. The list includes weakly bound sequences.

Target: T1, MBP-FoxP3dN (UniProt Q99JB6)
T1 sequence: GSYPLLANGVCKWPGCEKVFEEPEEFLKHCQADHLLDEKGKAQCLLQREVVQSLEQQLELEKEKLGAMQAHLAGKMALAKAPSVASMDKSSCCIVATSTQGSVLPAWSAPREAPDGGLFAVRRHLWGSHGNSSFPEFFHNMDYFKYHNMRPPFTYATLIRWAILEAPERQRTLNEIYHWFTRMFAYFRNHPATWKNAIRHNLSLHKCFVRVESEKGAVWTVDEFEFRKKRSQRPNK
Experiment: PD-seq (MBP pull-down with sequencing)
Conditions: 20 mM Tris-HCl pH 7.5, 100 mM NaCl, 1.5 mM MgCl2, 0.4 uM protein, 0.1 uM dsDNA library, 30 min, room temperature, amylose pull-down; high values mean tight binding; double strand, one strand shown

Sequence	binding signal (RPM ratio (pull-down/input))
GATGATTGTTCTCCCAGCTGATGAATTTCGTGTTTCGAGTAAACAAATTTTCCTAATCTTTCTGTTCAAGCGCCATCTAC	1.41
GATGATTGTTCTCCCAGCTGATGAATTAAGTTACTCGAGTAAACAAATTTTCCTAATCTTTCTGTTCAAGCGCCATCTAC	1.57
GATGATTGTTCTCCCAGCTGATGAATTGGGCGCCTCGAGTAAACAAATTTTCCTAATCTTTCTGTTCAAGCGCCATCTAC	1.16
GATGATTGTTCTCCCAGCTGATGAATTTCCCCGCTCGAGTAAACAAATTTTCCTAATCTTTCTGTTCAAGCGCCATCTAC	0.17
GATGATTGTTCTCCCAGCTGATGAATTGCTACGGTCGAGTAAACAAATTTTCCTAATCTTTCTGTTCAAGCGCCATCTAC	0.498
GATGATTGTTCTCCCAGCTGATGAATTGCCGCCGTCGAGTAAACAAATTTTCCTAATCTTTCTGTTCAAGCGCCATCTAC	0.854
GATGATTGTTCTCCCAGCTGATGAATTGTTATCGTCGAGTAAACAAATTTTCCTAATCTTTCTGTTCAAGCGCCATCTAC	3.32
GATGATTGTTCTCCCAGCTGATGAATTCTGTTGATCGAGTAAACAAATTTTCCTAATCTTTCTGTTCAAGCGCCATCTAC	6.26
GATGATTGTTCTCCCAGCTGATGAATTGTCGAAGTCGAGTAAACAAATTTTCCTAATCTTTCTGTTCAAGCGCCATCTAC	0.267
GATGATTGTTCTCCCAGCTGATGAATTGCTTGCATCGAGTAAACAAATTTTCCTAATCTTTCTGTTCAAGCGCCATCTAC	1.89
GATGATTGTTCTCCCAGCTGATGAATTCCGCCTTTCGAGTAAACAAATTTTCCTAATCTTTCTGTTCAAGCGCCATCTAC	5.55
GATGATTGTTCTCCCAGCTGATGAATTCTATACTTCGAGTAAACAAATTTTCCTAATCTTTCTGTTCAAGCGCCATCTAC	0.52
GATGATTGTTCTCCCAGCTGATGAATTGAGTAAATCGAGTAAACAAATTTTCCTAATCTTTCTGTTCAAGCGCCATCTAC	0.321
GATGATTGTTCTCCCAGCTGATGAATTCAGGGGGTCGAGTAAACAAATTTTCCTAATCTTTCTGTTCAAGCGCCATCTAC	0.504
GATGATTGTTCTCCCAGCTGATGAATTCTTTCTTTCGAGTAAACAAATTTTCCTAATCTTTCTGTTCAAGCGCCATCTAC	0.21
GATGATTGTTCTCCCAGCTGATGAATTACTCGCGTCGAGTAAACAAATTTTCCTAATCTTTCTGTTCAAGCGCCATCTAC	0.538

Sequence	binding signal (RPM ratio (pull-down/input))
GATGATTGTTCTCCCAGCTGATGAATTACACAGGTCGAGTAAACAAATTTTCCTAATCTTTCTGTTCAAGCGCCATCTAC	0.412
GATGATTGTTCTCCCAGCTGATGAATTTACAATCTCGAGTAAACAAATTTTCCTAATCTTTCTGTTCAAGCGCCATCTAC	0.506
GATGATTGTTCTCCCAGCTGATGAATTCGACCTATCGAGTAAACAAATTTTCCTAATCTTTCTGTTCAAGCGCCATCTAC	0.381
GATGATTGTTCTCCCAGCTGATGAATTATGTAAGTCGAGTAAACAAATTTTCCTAATCTTTCTGTTCAAGCGCCATCTAC	1.19
GATGATTGTTCTCCCAGCTGATGAATTTACGTGTTCGAGTAAACAAATTTTCCTAATCTTTCTGTTCAAGCGCCATCTAC	0.861
GATGATTGTTCTCCCAGCTGATGAATTTCAGAAATCGAGTAAACAAATTTTCCTAATCTTTCTGTTCAAGCGCCATCTAC	0.229
GATGATTGTTCTCCCAGCTGATGAATTGCATTTTTCGAGTAAACAAATTTTCCTAATCTTTCTGTTCAAGCGCCATCTAC	3.02
GATGATTGTTCTCCCAGCTGATGAATTTTGTGATTCGAGTAAACAAATTTTCCTAATCTTTCTGTTCAAGCGCCATCTAC	5.26
GATGATTGTTCTCCCAGCTGATGAATTGCCGCTTTCGAGTAAACAAATTTTCCTAATCTTTCTGTTCAAGCGCCATCTAC	1.66
GATGATTGTTCTCCCAGCTGATGAATTAGGACTATCGAGTAAACAAATTTTCCTAATCTTTCTGTTCAAGCGCCATCTAC	0.577
GATGATTGTTCTCCCAGCTGATGAATTCTGCGTCTCGAGTAAACAAATTTTCCTAATCTTTCTGTTCAAGCGCCATCTAC	4.55
GATGATTGTTCTCCCAGCTGATGAATTAGTGACCTCGAGTAAACAAATTTTCCTAATCTTTCTGTTCAAGCGCCATCTAC	0.612
GATGATTGTTCTCCCAGCTGATGAATTCGTCCCCTCGAGTAAACAAATTTTCCTAATCTTTCTGTTCAAGCGCCATCTAC	0.616
GATGATTGTTCTCCCAGCTGATGAATTGTACGCCTCGAGTAAACAAATTTTCCTAATCTTTCTGTTCAAGCGCCATCTAC	0.75
GATGATTGTTCTCCCAGCTGATGAATTCAGCCTGTCGAGTAAACAAATTTTCCTAATCTTTCTGTTCAAGCGCCATCTAC	3.98
